According to PubChem BioAssay AID759 (NMMLSC, 2007):
Screen size: about 190,000 compounds; about 270 (0.14%) were called active. The inconclusive results got no clear call from the source; some entries with a clear call stand among them for comparison.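 Rule for the calls: active = GTP binding activity at least 20% away from the 100% baseline, either lowered as inhibitor or raised as activator; inconclusive = flagged as likely green fluorescent, judged across all proteins in the well; inactive = the rest.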

Molecular target: GTPase HRas (Homo sapiens) (UniProt P01112)
UniProt P01112, sequence (P01112 whole entry, looked up): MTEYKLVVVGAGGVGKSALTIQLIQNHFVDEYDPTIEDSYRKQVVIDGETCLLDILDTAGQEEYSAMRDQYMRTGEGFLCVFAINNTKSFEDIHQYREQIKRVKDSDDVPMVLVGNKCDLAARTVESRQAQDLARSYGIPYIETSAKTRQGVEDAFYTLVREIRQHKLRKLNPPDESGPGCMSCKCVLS
Assay: HRas wt fluorescent GTP binding changes, either direction – biochemical, wildtype, bead-based flow cytometry, multiplex, primary screen (AID 759);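 note: 0% = unlabeled GTP competition control and 100% = no-compound control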
Details: GST-Ras wt beads, Bodipy-FL-GTP binding, at 10 µM, actives lie on both sides

GTP binding activity, active:
O=S1(=O)N=C(N(CCO)/N=C/C=C/c2ccccc2)c2ccccc21 70%

GTP binding activity, inconclusive:
COC(=O)C1=C(N)Oc2cc(C)n(Cc3cccnc3)c(=O)c2C1c1ccc(OC)c(OC)c1 (stereo not given) 104%
O=C(CSc1ncnc2c1oc1ccccc12)Nc1ccc2c(c1)OCCO2 96%
CCCC1Cc2c(sc3ncnc(N)c23)CO1 (stereo not given) 91%
COc1ccc(N=C2SC(C(=O)Nc3ccc(OC)cc3)CC(=O)N2CCN2CCOCC2)cc1 (stereo not given) 102%
C=CCN(Cc1cc(OC)ccc1OC)S(=O)(=O)N(C)C 103%
COc1nnc(-c2ccccc2)s1 102%
O=C(C[n+]1cccc(CNC(=O)c2ccc(OC(F)F)cc2)c1)Nc1ccccc1Cl 194%
O=C(CCCN1C(=O)/C(=C/c2cccs2)SC1=S)NNC(=O)c1ccccc1O 90%
COC(=O)/C=C1\NCCSC1=O 109%
COCCCNC(=O)c1ccc2c(c1)CCN2S(C)(=O)=O 94%
COc1ccc2nc(NC(=O)c3ccc(NS(=O)(=O)c4cccs4)cc3)sc2c1 92%
O=C(O)c1ccc(/C=C/c2nc3sc4c(c3c(=O)[nH]2)CCC4)cc1 88%
COc1ccc(Cl)cc1NC(=S)N(Cc1cccnc1)Cc1ccco1 96%
Cc1cc(NC(=O)Cn2c(=O)c3c(ncn3CCC(C)C)n(Cc3ccccc3)c2=O)no1 110%
CNC(=O)CSc1nc2c([nH]c3ccccc32)c(=O)n1CCOC 104%
Cn1nnnc1SCC(=O)Nc1cc(C(C)(C)C)nn1-c1ccccc1 103%
NC(=O)c1oc2ccccc2c1NC(=O)c1ccc(F)cc1 97%
COc1ccc(Nc2cc(C(=O)NCCCN3CCN(C)CC3)c3ccccc3n2)cc1OC 132%
CCc1cc2ccc(C)cc2nc1SCC(=O)Nc1cc(OC)c(OC)cc1C(=O)O 96%

GTP binding activity, inactive:
Cn1c(SCC(=O)N/N=C/c2ccc([N+](=O)[O-])s2)nnc1-c1ccc(Cl)cc1 99%
OCCC1CN(CC(c2ccccc2)c2ccccc2)CCN1C1CCCC1 (stereo not given) 97%
CCn1cc(-c2cc(C(=O)O)on2)c(C)n1 95%
COc1ccc2nc(SCC(=O)NCC(F)(F)F)[nH]c2c1 99%
O=C(CCCN1C(=O)c2cccc3cccc(c23)C1=O)NC1CCS(=O)(=O)C1 (stereo not given) 98%
